Over roughly 5,400 compounds, “IFI” has its median near 2; the highest 2% begin near 22. Some of the results follow.

The nature of the experiment: NOVARTIS: Inhibition Frequency Index (IFI) - the number of HTS assays where a compound showed > 50% inhibition/induction, expressed as a percentage of the number of assays in which the compound was tested. Format: functional.
In turn, `COc1ccc(CN(Cc2ccc(C(C)C)cc2)S(=O)(=O)c2ccc(S(=O)(=O)N3CCN(c4ccccc4F)CC3)cc2)cc1` displayed an IFI of 1.04%. Turning to `Cn1c(=O)c2c(nc3n(CCCO)c(C45CC6CC(CC(C6)C4)C5)cn23)n(C)c1=O`, the IFI is 0%. With `CCC(C)NC(=O)c1cc(NC(=O)/C=C/c2ccc([N+](=O)[O-])cc2)ccc1N1CCN(c2ccccc2OC)CC1` (stereo not drawn), the IFI came to 2.75%. In turn, `COC(=O)c1sc2nc(CN(C)CC(C)C)ccc2c1NC(=O)c1ccc(C)s1` displayed an IFI of 0.962%.

Compound `Cc1cccc(NC(c2cccc(Cl)c2)c2ccc3cccnc3c2O)n1` (stereo not drawn) gave an IFI of 0%. In the case of `CCOC(=O)c1ccc(NC2=C(N3CCCCC3)C(=O)c3ccccc3C2=O)cc1`, the IFI is 0%. With `Cc1oc2c(c1C(=O)N1CCN(C)CC1)C(=O)c1ccccc1C2=O` the figure was 10.8%; with `CC(=O)c1cc(CN2CCC(C(=O)Nc3ccc(-n4nc(C)cc4C)cc3)CC2)cs1`, 0%; with `COc1ccc(Nc2nc(NN=Cc3cc(Br)c(O)cc3O)nc(Nc3ccc([N+](=O)[O-])cc3)n2)cc1`, 13.9%. `COc1ccc(/C=C2\SC(=Nc3ccccc3)NC2=O)cc1` returned an IFI of 0%. Under `CCCCSc1oc(C)nc1[P+](c1ccccc1)(c1ccccc1)c1ccccc1` stands 22.2%; under `O=C(C1CC1)N1CCN=C1SCc1ccc(C(F)(F)F)cc1`, 0%. Compound `CN1CCCC1CCNc1ncc(C(=O)NCc2ccccc2)c(NC2CCCC2)n1` (stereo not drawn) returned an IFI of 1.94%.

`Cc1cccc(C2c3[nH]c4ccccc4c3CCN2C(=O)CCCN2CCCCC2=O)n1` (stereo not drawn): the IFI turned out to be 0%.

In the case of `COc1ccc(C2(CNCC(O)c3cccc([N+](=O)[O-])c3)CCCC2)cc1OC` (stereo not drawn), the IFI worked out at 0%. Turning to `CCn1c2c(c(=N)c3ccccc31)CCC2`, the IFI came to 7.14%. Under `CN1CCN(c2nc(NN=Cc3cccc(Cl)c3)nc(Nc3ccc([N+](=O)[O-])cc3)n2)CC1` stands 5.2%; under `CC(C)(C)C(/C=C/c1ccc(Cl)cc1Cl)n1nnnc1C1(Nc2ccc(Cl)cc2)CCCCC1` (stereo not drawn), 0%; under `Cc1cc(Nc2cccc(F)c2)nc(NCc2ccccc2)n1`, 0%. `O=C(c1cccc(Cl)c1)N1CCN(c2ccc([N+](=O)[O-])c(NC3CC3)c2)CC1` had an IFI of 3.49%. `O=C(Nc1ccc2c(c1)OCO2)c1cc2cc(C3(O)CCN(CC4CCCCC4)CC3)ccc2o1` gave an IFI of 4.24%. Compound `c1ccc(-c2cc(N3CCc4ccccc4C3)nc(-c3ccccn3)n2)nc1` yielded an IFI of 7.69%. Under `Cc1ccnc(NC(c2ccncc2)c2ccc3cccnc3c2O)c1` (stereo not drawn) stands 9.52%.

In turn, `COCCOC(=O)C1=C(C)NC2=C(C(=O)CC(c3ccc(OC)c(OC)c3)C2)C1c1cccc(Cl)c1Cl` (stereo not drawn) showed an IFI of 2.35%.

Compound `CN(C)CCCNc1ncnc2c1[nH]c1ccccc12` showed an IFI of 6%. `OCCN1CCN(c2cc(-c3cccnc3)nc(-c3ccncc3)n2)CC1` came in with an IFI of 0%. With `COc1cc(C(=O)Nc2c3c(nn2-c2cc(C)cc(C)c2)CSC3)cc(OC)c1OC` the figure was 3.53%. With `CC12CCC(CN(CC(O)Cn3c4ccc(Br)cc4c4cc(Br)ccc43)C1)C2(C)C` (stereo not drawn) the figure was 1.39%; with `CCOC(=O)C1=C(C)NC2=C(C(=O)CCC2)C1c1cc(Br)c(O)c(OCC)c1` (stereo not drawn), 3.45%; with `CCC1(C)CC(CCNCc2ccccc2O)(c2ccccc2OC)CCO1` (stereo not drawn), 2.86%.

For the compound `CCc1ccc(C(=O)Oc2ccccc2-c2nc3cc(C)ccn3c2NC(C)(C)CC(C)(C)C)cc1`, the IFI was determined as 7.48%. With `CN[C@H]1C[C@@H]2O[C@](C)([C@H]1O)n1c3ccccc3c3c4c(c5c6ccccc6n2c5c31)C(=O)NC4` the figure was 46.2%; with `C[n+]1c(/C=C/c2ccc(Cl)c(Cl)c2)ccc2ccccc21`, 2%.

Compound `O=C1NCCN1CCNS(=O)(=O)c1cc(C(F)(F)F)cc(C(F)(F)F)c1` displayed an IFI of 0.833%. Under `COc1ccc(-n2nc(C(=O)NCC(=O)NCCCN3CCOCC3)c3ccccc3c2=O)cc1Cl` stands 0%; under `Cc1ccn2c(NC(C)(C)CC(C)(C)C)c(-c3ccccc3OC(=O)C3CCCCC3)nc2c1`, 3.74%; under `O=C(NCc1c(Cl)cccc1Sc1ccc(Cl)cc1)c1ccc2c(c1)CCO2`, 7.89%. Under `Cc1ccn2c(NC(C)(C)CC(C)(C)C)c(-c3ccccc3OC(=O)c3ccccc3F)nc2c1` stands 3.74%; under `CCC(C)NC(=O)CSc1nnc(-c2cccnc2)n1-c1ccc(Cl)cc1` (stereo not drawn), 0%; under `CCN(CC)CCN1C(=O)c2ccccc2NC1c1ccc(Br)cc1` (stereo not drawn), 4.71%.

As to `COc1ccc(S(=O)(=O)N=C2C=C(Nc3ccccc3)C(=O)c3ccccc32)cc1`, the IFI turned out to be 0%. Under `Cc1ccc(Cl)cc1N1C(=O)[C@@H]2[C@H](C1=O)C1c3ccccc3C=CN1[C@@H]2C(=O)c1cccs1` (stereo partly drawn) stands 9.76%; under `CCOC(=O)C1=C(C)N=c2sc(=Cc3cc(Cl)ccc3O)c(=O)n2C1c1ccc2c(c1)OCO2` (stereo not drawn), 2.35%. Under `CC(C)c1ccc(C2N(c3ccccc3)C3(C(=O)c4ccccc4C3=O)C(c3ccc(C(C)C)cc3)C23C(=O)c2ccccc2C3=O)cc1` (stereo not drawn) stands 0%; under `CCN(CC)CCNc1ncnc2c1[nH]c1ccc(F)cc12`, 5.88%; under `CCC(C)NC(=O)c1nn(-c2ccc(Cl)cc2)c(=O)c2ccccc12` (stereo not drawn), 0%. With `O=C1/C(=C/c2ccccc2)Oc2c1ccc(O)c2CN1CCCCC1` the figure was 0%. Compound `COc1ccc(CNc2ncnc3c2[nH]c2cc(OC)ccc23)cc1` yielded an IFI of 7.69%. Under `O=C(c1cccs1)N1CCN(c2ccccn2)CC1` stands 0%; under `O=C(Nc1ccc(Oc2cccnc2)cc1)C1CCN(Cc2ccc3nonc3c2)CC1`, 0%.

For the compound `OCCCNc1cc(-c2ccnc(Nc3cccc(Cl)c3)n2)ccn1`, the IFI is 30.8%. For the compound `CCOc1ccc(NC(=O)C2c3ccccc3C(=O)N(CC(C)C)C2c2cccs2)cc1` (stereo not drawn), the IFI came out at 6.25%. Under `c1cc(NCc2ccc3c(c2)OCO3)n2ncc(-c3ccoc3)c2n1` stands 0%; under `Cc1cc(Nc2ccc(Cl)cc2)n2nnnc2n1`, 0%. In turn, `COc1ccc(C(C)=NNc2nnc(C)c(O)n2)cc1` gave an IFI of 0%. `Cc1c2oc3c(C)ccc(C(=O)NC4C(=O)N[C@@H](C(C)C)C(=O)N5CCCC5C(=O)N(C)CC(=O)N(C)C(C(C)C)C(=O)OC4C)c3nc-2c(C(=O)NC2C(=O)N[C@H](C(C)C)C(=O)N3CCCC3C(=O)N(C)CC(=O)N(C)C(C(C)C)C(=O)OC2C)c(N)c1=O` (stereo partly drawn) had an IFI of 21.7%. With `COc1ccc2nc(C)cc(Nc3ccc(Cl)cc3)c2c1` the figure was 3.37%. In turn, `COc1ccc(C2C(C(=O)Nc3cccc(OC)c3)c3ccccc3C(=O)N2C2CCCCC2)cc1` (stereo not drawn) yielded an IFI of 0%. With `Cc1cccc(N2CCN(c3nc4ccccc4c4nnc(C)n34)CC2)c1C` the figure was 0%; with `CCCCn1c(NN=C2C(=O)Nc3ccccc32)nc2c1c(=O)[nH]c(=O)n2C`, 1.31%. With `Cc1ccc2[nH]c3c(NCCN4CCCCC4)ncnc3c2c1` the figure was 10%; with `CC(CCCNCCO)Nc1ccnc2cc(Cl)ccc12` (stereo not drawn), 2.44%. Regarding `Cc1c(Cl)cccc1NC(=S)N1CCCN(c2ccc(C(F)(F)F)cc2[N+](=O)[O-])CC1`, the IFI was 2.5%. Consider `CCOC(=O)C1CCN(C(=O)c2cc(C(C)(C)C)nn2Cc2ccc(Cl)cc2Cl)CC1`, for which the IFI stood at 1.63%. With `CC(C)CNC(=O)c1cnc(NCCC2CCCN2C)nc1NCCc1ccccc1` (stereo not drawn) the figure was 0.952%. `O=C(CSc1ccc(Cl)cc1)NN=C1C(=O)Nc2ccccc21` displayed an IFI of 0%. In turn, `O=C(/C=C\c1ccccc1)Nc1ccc2[nH]c(-c3ccc(NC(=O)/C=C/c4ccccc4)cc3)nc2c1` had an IFI of 0%. With `CCCC1(CCC)NC(=S)N(c2ccc(C)c(C)c2)N1` the figure was 0%. With `COC(=O)CC(NC(=O)c1ccc(C)cc1)c1ccc2c(c1)OCO2` (stereo not drawn) the figure was 1.22%. With `Fc1ccc2nc(Nc3nc(-c4ccccn4)cs3)sc2c1`, the IFI stood at 17.6%. The compound `CC(C)(C)CC(C)(C)Nc1c(-c2ccccc2OC(=O)c2cccc(Cl)c2)nc2ccccn12` registered an IFI of 4.72%. Under `CC(C)CSc1nc2sc3c(c2c(=O)n1-c1ccccc1)CCN(Cc1ccccc1)C3` stands 2.5%. Under `O=C(Nc1cccc(C2=NCCN2)c1)c1ccc(C(=O)Nc2cccc(C3=NCCN3)c2)cc1` stands 0.893%; under `CCOC(=O)c1sc(NC(=O)C(C)Sc2nnc(CNC(=O)c3cccc(F)c3)n2-c2cccc(C)c2)c(C(=O)OCC)c1C` (stereo not drawn), 0%; under `O=C(NCCc1ccccc1)c1cnc(NCCCn2ccnc2)nc1NC1CCCC1`, 0.962%. With `Nc1nc(N)nc(C(c2ccccc2)c2ccccc2)n1` the figure was 0%; with `CCOc1ccc(N=C2NC(=O)S/C2=C2/C(=O)Nc3ccc(Br)cc32)cc1`, 1.22%; with `C#CCNC(=O)c1ccc(OC2CCN(CC3CCCCC3)CC2)c(Cl)c1`, 9.72%. `O=C(NCC1CCCO1)c1cnc(N2CCN(c3ncccn3)CC2)c2ccccc12` (stereo not drawn): the IFI is 6.06%. With `COc1ccc(OC)c(-c2ccc(O)c(CNC3CCCCCC3)c2)c1` the figure was 2.97%; with `CCOC(=O)N1CCN(C(=O)C(NC(=O)C2CCC(C)CC2)C(C)C)CC1` (stereo not drawn), 3.85%. With `COc1ccc(-c2cc(C(=O)Nc3cc(Oc4ccc(NC(C)=O)cc4)cc([N+](=O)[O-])c3)c3ccccc3n2)cc1` the figure was 3.41%; with `CCCCCOC(=O)C1=C(C)NC2=C(C(=O)CCC2)C1c1ccc(OC)c(Br)c1` (stereo not drawn), 2.22%; with `CCOC(=O)c1nnn(-c2nonc2N)c1-c1ccc(Br)cc1`, 0%. Under `CC(C)(c1ccc(Oc2ccc(NC(=O)C(F)(F)F)cc2)cc1)c1cccc(Oc2ccc(NC(=O)C(F)(F)F)cc2)c1` stands 0%; under `Cc1ccc(-c2c[n+](Cc3ccc(Cl)cc3)c3n2CCC3)cc1`, 10%. Take `COc1cccc(N2CCN(CCNCCOc3ccccc3)[C@@H](Cc3ccccc3)C2)c1`: the IFI was 2.44%.

Compound `CCOC(=O)C1=C(C)NC2=C(C(=O)CC(c3ccc(OC)cc3)C2)C1c1ccsc1` (stereo not drawn) returned an IFI of 0%. Compound `CCOc1cc(C(=O)Nc2ccc(-c3nc4ccccc4[nH]3)cc2)cc(OCC)c1OCC` gave an IFI of 4.71%. Under `CCOC(=O)C1=C(CC)NC2=C(C(=O)CCC2)C1c1ccc(N(C)C)cc1` (stereo not drawn) stands 1.43%; under `COC(=O)c1c(C)oc2ccc(N(C(=O)c3ccc(C)cc3)S(=O)(=O)c3ccccc3)cc12`, 0%; under `O=C(O)/C=C\C(=O)N(C1CCCCC1)C1CCCCC1`, 0%. On to `COc1ccc(OC)c(-c2ccc(O)c(CNCc3ccccc3OC)c2)c1`, for which the IFI was 0.848%.
